Laboratory results as given in article PMC4336329 (PLoS ONE, 2015).
Hit rate of the full screen: of about 310,000 compounds, about 14,000 (4.5%) showed an effect of 50% or more. Effects have a minus sign here. This is one part of the list.

The molecules below were run against human ether-à-go-go-related gene (hERG) potassium channel (human, UniProt Q12809) (assay: primary screen, population patch clamp on CHO cells stably expressing hERG).
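Note: peak tail current of the secondary pulse compared with the same well before compound.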

Sequence of human ether-à-go-go-related gene (hERG) potassium channel (Q12809 whole entry, looked up): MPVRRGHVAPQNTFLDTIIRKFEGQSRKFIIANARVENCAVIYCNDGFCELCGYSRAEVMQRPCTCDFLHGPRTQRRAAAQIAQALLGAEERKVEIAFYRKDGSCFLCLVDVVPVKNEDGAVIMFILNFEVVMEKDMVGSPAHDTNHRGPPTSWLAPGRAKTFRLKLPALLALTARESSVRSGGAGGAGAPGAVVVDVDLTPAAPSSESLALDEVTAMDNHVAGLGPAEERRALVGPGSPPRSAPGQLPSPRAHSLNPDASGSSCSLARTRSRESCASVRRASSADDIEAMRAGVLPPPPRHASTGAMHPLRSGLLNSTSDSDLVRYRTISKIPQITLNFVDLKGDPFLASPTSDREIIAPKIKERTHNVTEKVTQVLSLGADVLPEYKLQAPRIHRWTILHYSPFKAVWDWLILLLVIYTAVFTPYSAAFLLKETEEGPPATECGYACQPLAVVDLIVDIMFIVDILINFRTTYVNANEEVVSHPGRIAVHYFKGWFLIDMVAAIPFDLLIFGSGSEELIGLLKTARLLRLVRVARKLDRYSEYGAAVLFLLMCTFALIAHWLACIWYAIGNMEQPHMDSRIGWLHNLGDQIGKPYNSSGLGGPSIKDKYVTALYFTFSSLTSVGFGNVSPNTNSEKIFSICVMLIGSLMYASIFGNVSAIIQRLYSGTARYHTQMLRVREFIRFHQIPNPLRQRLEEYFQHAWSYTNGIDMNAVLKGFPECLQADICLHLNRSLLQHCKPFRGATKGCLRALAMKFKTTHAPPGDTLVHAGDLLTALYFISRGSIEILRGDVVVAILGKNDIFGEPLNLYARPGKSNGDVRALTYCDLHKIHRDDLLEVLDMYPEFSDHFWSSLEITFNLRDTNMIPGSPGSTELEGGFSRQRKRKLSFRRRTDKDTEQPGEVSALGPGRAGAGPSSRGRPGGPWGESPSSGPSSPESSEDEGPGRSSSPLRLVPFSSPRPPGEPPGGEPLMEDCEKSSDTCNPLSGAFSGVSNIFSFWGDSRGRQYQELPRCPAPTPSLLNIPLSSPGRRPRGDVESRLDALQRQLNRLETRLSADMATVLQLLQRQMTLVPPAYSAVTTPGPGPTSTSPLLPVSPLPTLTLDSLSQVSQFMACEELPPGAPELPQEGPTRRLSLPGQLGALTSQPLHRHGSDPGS

Structure (SMILES) | hERG current change (%, negative = inhibition) at 10uM [%]
CN(C(=O)c1cncc(Br)c1)C1C2CC3CC(C2)CC1C3 (stereo not shown) | 3.35
CN1CCC(O)(c2cccs2)C(C(=O)c2cccs2)C1 (stereo not shown) | 11.1
Cc1ccccc1N(CC(=O)N/N=C/c1ccc(N(C)C)cc1)C(=O)c1ccccc1 | -0.173
CC(=O)Nc1ccc(C(=O)NCCCOC(C)C)cc1 | 9.69
Cc1ccc(S(=O)(=O)N(C)c2nc3ccccc3[nH]c2=S)cc1 | 4.41
Cc1nc2ncccn2c1-c1csc(Nc2cccc(C(=O)O)c2)n1 | 5.55
CCc1cc2c(=O)c(-c3nc4ccccc4n3C)c(COCC(=O)O)oc2cc1OC(=O)C(C)(C)C | 8.72
Nc1ccc(C(=O)OCCc2ccccc2)cc1 | 9.38
CCCCC(=O)N(c1ccc(C(=O)O)cc1)c1nc(-c2ccc(Cl)cc2)c(CC)s1 | -9.58
CCOc1cc(/C=N/NC(=O)COc2ccc(Cl)cc2)ccc1OS(=O)(=O)c1ccccc1 | 14.9
Cn1c(=O)n(CC(=O)NCc2cccnc2)c2ccccc21 | -10.5
CCOC(=O)c1c(NC(=O)CSc2nnc(-c3cccc(C)c3)n2CC)sc(C(C)=O)c1C | -18.9
COc1ccc(NC(=O)Nc2ccc3nonc3c2)cc1 | 3.37
C=C(C)CNC(=O)CCc1nnc(Cc2cccc(C(F)(F)F)c2)o1 | 15.7
CC(NC(=O)CSc1cccc(C(F)(F)F)c1)c1ccccc1 (stereo not shown) | -1.75
CSc1nc2nc3c(cc2c(=O)n1-c1cccc(C)c1)COC(C)(C)C3 | 9.49
CC(C)CC(=O)c1c[nH]c(C(=O)NCc2cccnc2)c1 | 8.11
CCCCOc1ccc(CN2CCCCC2)cc1 | -16.5
CCCCN(CC)C(=O)c1ccc(-c2ccccc2)cc1 | -14.8
COc1ccc(CNC(=O)CSc2ccsc2[N+](=O)[O-])cc1 | -10.2
CCOC(=O)C(C(=O)OCC)C(CC(=O)C1CC1)c1ccccc1 (stereo not shown) | -0.081
CC(=O)N1N=C(c2ccccc2)OC1c1cccnc1 (stereo not shown) | -9.41

Structure (SMILES) | hERG current change (%, negative = inhibition) at 10uM [%]
Cc1cc(C(=O)NN)c(Cl)cc1Cl | 11.9
COc1ccc(/C(C)=N/NC(=O)Cn2nc([N+](=O)[O-])cc2C)cc1 | 12.9
Cn1c(SCC(=O)NCC2CCCO2)ncc(C(=O)Nc2ccccc2)c1=O (stereo not shown) | -22.8
Cc1nnsc1C(=O)NNc1ccc(C(C)(C)C)cc1 | 14.1
COc1ccccc1NC(=O)N(CCN1CCCC1)Cc1cc2cc(C)ccc2[nH]c1=O | -64.8
COc1ccccc1-n1c(SCC(=O)N2CCCC2)nnc1-c1ccccc1 | 10.2
CCn1c(COc2cccc(OC)c2)nnc1SCC(=O)Nc1ccccc1C(=O)OC | -16.5
CCOC(=O)N1CCN(C(=O)CSCc2nc(-c3ccccc3F)oc2C)CC1 | -7.27
O=C(CCc1ccc(S(=O)(=O)N2CCOCC2)cc1)N/N=C/c1cccc(O)c1 | -3.74
COc1cc([N+](=O)[O-])ccc1NC(=O)CCS(=O)(=O)c1ccc2c(c1)n(C)c(=O)c(=O)n2C | 3.37
CC1CCN(CCCOc2ccc(OCc3ccccc3)cc2)CC1.O=C(O)C(=O)O | -71.4
COc1ccccc1NC(=O)N1CCC(c2nc3ccccc3o2)CC1 | -6.16
Cc1cc(Cl)c2oc(C(=O)NC3CCC(O)CC3)c(C)c2c1 (stereo not shown) | 15.6
O=C(NCc1c(F)cccc1F)c1cc(COc2c(F)cccc2F)on1 | 10.7
Cc1nn(-c2ccccc2)c(C)c1NC(=O)c1cccs1 | 15.5
CCOCCn1c(=O)c2c(nc3n2CCCN3Cc2ccccc2)n(C)c1=O | 0.204
Clc1ccc2c(c1)C(N1CCNCC1)Cc1ccccc1S2.O=C(O)/C=C\C(=O)O (stereo not shown) | -54.3
COC(=O)c1ccc(COc2ccc(NC(C)=O)cc2)o1 | 4.32
Cc1cccc(C(C)(C)C)c1OCCOCCN1CCCC1 | -20.6
Cc1ccc(-c2cc(C(=O)N/N=C/c3ccco3)n[nH]2)s1 | -22.8
Cc1c(NC(=O)c2nn3c(c2Br)NC(c2ccccc2)CC3C(F)(F)F)c(=O)n(-c2ccccc2)n1C (stereo not shown) | -0.849
O=S(=O)(c1ccccc1)[C@@]1(c2ccccc2)C[C@@H]2ON=C(c3cccc(-c4ccccc4)c3)[C@@H]2C1 | 0.51

Structure (SMILES) | hERG current change (%, negative = inhibition) at 10uM [%]
CCCc1cc(=O)[nH]c(=S)[nH]1 | 22.4
Cc1ccc(CNC(=O)C2CCC(CNS(=O)(=O)c3cccc4cccnc34)CC2)cc1 (stereo not shown) | 2.76
COc1cccc(CN2CCN(Cc3c(C)nn(C(C)C)c3C)CC2CCO)c1 (stereo not shown) | -2.68
CC(C)(C)CC(=O)NC(=S)Nc1ccccc1[N+](=O)[O-] | 12.2
C=CCNC(=O)C(C)N1C(=O)c2ccccc2C1=O (stereo not shown) | 10.2
Nc1nc(N)n(-c2ccccc2)c(=Nc2ccccc2)n1 | 11.4
CNC(=O)c1ccccc1NC(=O)c1ccc(C)c(S(=O)(=O)N2CCCCC2)c1 | -17.2
CCC(c1nnnn1CCc1ccccc1)N(Cc1ccco1)Cc1cc2cccc(C)c2[nH]c1=O (stereo not shown) | 10
CCn1cc(/C=N\NC(=O)c2ccccc2Cl)cn1 | 11.7
O=C(COc1ccccc1Cl)NCCNC(=O)c1cccnc1 | -3.71
OCCN=Cc1c(O)[nH]c2ccccc12 | 12.8
CC(=O)Nc1cccc(S(=O)(=O)N2CCCCCC2)c1 | 1.78
Cc1cc(C)nc(S/C=C/C(=O)c2ccccc2)n1 | 15.6
COC(=O)CCC(=O)OC1(C)C(=O)C=C2C=C(C3CC3)N(C3CCCC3)C=C2C1=O (stereo not shown) | 3.65
CCOC(=O)Cn1c(=NC(=O)CSC(C)=O)sc2cc(OC)ccc21 | 7.42
Cc1onc(-c2c(Cl)cccc2Cl)c1C(=O)c1ccccc1 | -4.77
OCCCCc1nccc2c1[nH]c1ccccc12 | 0.0757
COc1ccc(C(O)(CCN2CCOCC2)c2ccccc2)cc1 (stereo not shown) | -6.83
C/C(=C\c1cccc(Br)c1)C(=O)c1c(C)cc(C)[nH]c1=O | 11.7
Cc1ccc(-c2csc3ncnc(-n4nnc5ccccc54)c23)cc1 | -10.8
COc1cccc2cc(C(=O)c3ccc([N+](=O)[O-])cc3)oc12 | 1.68
CCCCOC(=O)Nc1nnc(COc2ccccc2)s1 | -14.7

Structure (SMILES) | hERG current change (%, negative = inhibition) at 10uM [%]
CC(C)(C)c1cc(C(=O)NNC(=O)c2ccc(Cl)cc2)no1 | -13.9
COc1ccc(CN2C(=O)c3cccc4cccc(c34)C2=O)cc1 | 1.01
COc1ccc(-c2noc(N3CCC(C(=O)N4CCN(c5ccccn5)CC4)CC3)n2)cc1 | -47.5
C=CC[C@@H]1C=C(C)C[C@H](C)C[C@H](OC)[C@H]2O[C@@](O)(C(=O)C(=O)N3CCCC[C@H]3C(=O)O[C@H](/C(C)=C/[C@@H]3CC[C@@H](O)[C@H](OC)C3)[C@H](C)[C@@H](O)CC1=O)[C@H](C)C[C@@H]2OC | -2.51
CCOC(=O)/C=C1\SCC(=O)N1Cc1ccc(Br)cc1 | 4.9
Cc1ccccc1N(CC(=O)NCCSCc1ccco1)S(C)(=O)=O | 6.6
C=CCOc1ccccc1/C=c1\sc2nc(=O)c(C)nn2c1=O | -10.1
Cc1cccc(NC(=O)c2ccc(-n3ccnc3)nc2)c1 | -6.67
CCCn1c(SCC(=O)NC2CCCCC2)nnc1-c1cccnc1 | 13.2
c1ccc(-c2cn(-c3ccccc3)c3ncnc(NCCCN4CCOCC4)c23)cc1 | -60.6
COCCNC(=O)[C@@]1(C)C=C[C@@H](Cc2ccccc2)N1C(=O)c1ccccc1 | 0.626
CCn1c(CN2CCCCCC2=O)nnc1SCc1cnc(-c2ccccc2)s1 | -19.3
CC(C)CNC(=O)CCCSc1nc2ccccc2[nH]1 | 22.4
CCc1c(C)sc2nc(SCC(=O)Nc3cc(C)on3)n(CCOC)c(=O)c12 | -0.236
CCOc1ccc(S(=O)(=O)NCCC(=O)NCc2ccccn2)cc1 | 2.7
COc1ccc(Cc2nnc(NC(=O)C(C)(C)C)s2)cc1 | 1.21
O=C(Nc1ccc(Cl)cc1)C1CC=CCC1C(=O)OCC(F)(F)C(F)F (stereo not shown) | -8.23
CCn1c(SCC(=O)Nc2c(C)n(C)n(-c3ccccc3)c2=O)nc2c1c(=O)n(C)c(=O)n2C | 18.2
Cc1cc(OCCn2cncn2)ccc1[N+](=O)[O-] | 2.55
O=C(C1CCOCC1)N1CCCC(N2CCN(c3cccc(C(F)(F)F)c3)CC2)C1 (stereo not shown) | -12.9
CN(CC(=O)Nc1cccc(F)c1)C(=O)CCSc1ccc(F)cc1 | -9.23
CCN(CC)c1ccc(NC(=O)CN2CCN(CC(=O)Nc3ccc(F)cc3)CC2)cc1 | -76.4
